Experimental data as given in PubChem BioAssay AID1508624 (National Center for Advancing Translational Sciences (NCATS), 2021).
The campaign covered roughly 48,000 compounds. About 120 (0.25%) were called active. About 4% were inconclusive and are not listed. The call rests on the fitted dose curve; in most records, active means well fitted activation curve with a large enough effect; inconclusive means small, poorly fitted or top-dose-only effect, or another doubt; inactive means no such curve, though single readings can be large or run the other way. The list shows a part of the results.

Assay: Primary qHTS for Identification of Small Molecule Activators of Huntingtin-Antisense Promoter Activity; further: nearly all actives have a fitted effect of over 55% in size
Settings: HEK293 HTT-AS promoter firefly luciferase reporter (activity 0% = vehicle and -100% = no light), 24 h; series mostly up to 57.5 µM; activity change, positive = activation: at the top concentration
Outline: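 Luminescence was read after Dual-Glo reagent and a 10 min room-temperature incubation. Values were normalized to vehicle (0% activity) and zero RLU (-100% activity). Reporter HEK293 cells had been exposed to compounds (up to 57.5 uM final) for 24 h.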

Activity change, positive = activation, inactive:
CC(C)CSc1oc(-c2ccco2)nc1S(=O)(=O)c1ccc(Br)cc1 -19.9%
CN(C(=O)CSc1nc2ccccc2n1Cc1cccc(C(F)(F)F)c1)c1ccccc1 -46.2%
CC(C)C(=O)Nc1cccc(C2CN3CCSC3=N2)c1 (stereo unspecified) -9.34%
O=C(NCCc1csc(-c2ccc(F)cc2)n1)c1c(F)cccc1Cl -22.4%
O=C(COC(=O)c1cc(-c2ccccc2)nc2c(Cl)cccc12)c1ccc(F)cc1 -18.9%
CCn1cc(C(=O)N2CCN(c3ccc(OC)cc3)CC2)c(=O)c2cc(S(=O)(=O)N(C)C3CCCCC3)ccc21 -4.69%
COc1cccc(CNC(=O)c2nn(C)c3c2CS(=O)(=O)c2ccccc2-3)c1 -5.1%
O=C(NCc1ccco1)c1ccc2c(c1)N(Cc1ccccc1F)C(=O)c1ccccc1S2=O (stereo unspecified) -36.5%
COc1ccc(NC(=O)CSC2=Nc3ccccc3C3=NC(CCC(=O)NCCc4ccccc4)C(=O)N23)c(OC)c1 (stereo unspecified) -34.3%
Cc1cccc(OC(=O)c2cc(-c3ccc(Cl)cc3)on2)c1C -5.81%
COc1ccc(CNC(=O)c2cc(C)nc3c2c(C)nn3-c2cccc(Cl)c2C)cc1 -27.8%
COc1cccc(NC(=O)C(CCSC)NC(=O)C2CCC(C)CC2)c1 (stereo unspecified) -7.73%
Cc1ccccc1CNC(=O)CCC(=O)N1CC2CCCN2c2ccccc21 (stereo unspecified) -12.7%
Cc1cc(O)c(-c2ccnc3cc(-c4ccccc4)nn23)cc1Cl -14.5%
CC1CCN(S(=O)(=O)c2ccc3c(c2)N(CC(=O)N2CCN(c4ccccc4)CC2)C(=O)CO3)CC1 -31.5%
CC(=O)c1ccc(NC(=O)Cn2ncc3c(C)n(Cc4ccc(F)cc4)c(C)c3c2=O)cc1 -11.3%
COc1ccccc1C(=O)Nc1nc2nc(C)c(Cc3ccccc3)c(=O)n2[nH]1 6.37%
COc1ccccc1CNc1ncnc2c1c(-c1ccccc1)cn2-c1cccc(C)c1 -30.3%
COc1cccc(Cn2c(CNS(=O)(=O)c3ccc4c(c3)CCCC4)nc3cccnc32)c1 -27.9%
Cc1ccc(Nc2cc(C(=O)NCc3cccs3)c3ccccc3n2)c(C)c1 -4.12%
Cc1ccc(CCNC(=O)c2cc(-c3ccc(Cl)cc3)n[nH]2)cc1 0.694%
CN(Cc1ccc(C(C)(C)C)cc1)Cc1cccc2ccccc12 -15%
Cc1ccc(NC(=O)c2ccc3[nH]c(C)cc(=O)c3c2)c(C)c1 -9.69%
Cc1ccc(NC(=O)Cc2coc3c(C)c(C)ccc23)cc1Cl -16.8%
COc1ccc(Nc2ncc3c(n2)CCN(C(=O)OC(C)(C)C)C3)cc1 -2.32%
CN(C)CCOc1cc(-c2cn[nH]c2)ccc1NC(=O)C1COc2ccccc2O1 (stereo unspecified) -41.6%
COc1ccccc1CN1CCN(C2CCN(C(=O)NC(C)C)CC2)C(=O)C1=O 3.48%
CCOc1ccccc1C(=O)N(Cc1cccs1)c1ccc(Cl)cc1 -30.1%
O=C(Nc1ccccc1)c1cn(-c2ccccc2)nc1-c1ccccc1 -10.3%
O=C(NCCCNc1nc(Nc2cccc(NC(=O)N3CCCC3)c2)ncc1I)c1cccs1 -45.7%
Cc1cccc(-n2c3nc(=O)[nH]c(=O)c-3cc3c(C)nn(-c4ccccc4)c32)c1C -7.05%
COc1ccccc1NC(=O)CSC1=Nc2ccccc2N=C(c2ccc(F)cc2)C1 -13.1%
CCN(CC)C(=O)CSc1nc2ccccc2c(=O)n1Cc1ccco1 -14.5%
Cc1ccc(NC(=O)Cn2c(-c3cncs3)nc3ccccc32)cc1Br -26.5%
COc1ccc(Cl)cc1NC(=O)N1CC(=O)Nc2sc3c(c2C1c1ccccc1)CCCC3 (stereo unspecified) -29.4%
CCCc1nccn1S(=O)(=O)c1cc(Br)ccc1OC 6.53%
COc1cc2c(C(=O)N(C)c3cc(Cl)ccc3OC)cn(CC(C)C)c(=O)c2cc1OC -22.5%
CCN(C(=O)Cn1c(=O)n(CC2CCC(C(=O)NC)CC2)c(=O)c2sccc21)c1ccccc1 (stereo unspecified) -6.6%
Cc1nn(CCCC(=O)Nc2cccc(F)c2)c(=O)c2c1sc1ccccc12 -20.7%
COc1ccc(NC(=O)CN2C(=O)CCc3cc(S(=O)(=O)N4CCOCC4)ccc32)cc1Cl -18.3%
c1cc(CN2CCCNCCNCCCNCC2)ccc1CN1CCCNCCNCCCNCC1 -24%
COc1ccccc1C(=O)Nc1nc2nc(-c3ccccc3)cc(=O)n2[nH]1 0.649%
CCc1nn2c(=O)cc(COC(=O)c3ccc(NC(=O)c4cccs4)cc3)nc2s1 4.47%
Cc1ccccc1NS(=O)(=O)c1ccc2[nH]cc(C(=O)NC(C)c3ccccc3)c(=O)c2c1 (stereo unspecified) -44.6%
CCOc1ccccc1CNC(=O)Cn1ncn2nc(-c3cccs3)cc2c1=O 0.428%
COc1ccc(Nc2nnc(-c3cc4c(ccc5ccccc54)oc3=O)s2)cc1 4.3%
COc1ccccc1CCNC(=O)C(=O)NCC(c1cccs1)S(=O)(=O)c1ccc(C)cc1 (stereo unspecified) -34.9%
COC(=O)c1c(NC(=O)c2nc(SCc3cccc(C)c3)ncc2Cl)sc2c1CCCC2 -12.9%
COc1ccc(-n2nnc(-c3nc(-c4cccs4)no3)c2N)cc1OC 13.6%
CC(=O)N1CCCC1c1nc2ccccc2n1Cc1cccc(Cl)c1 (stereo unspecified) -14.9%
CCc1ccc(CNC(=O)COc2cc(=O)n(CC)c3ccccc23)cc1 -28.7%
Cc1ccc(-c2noc(-c3ccc(NCc4ccco4)c([N+](=O)[O-])c3)n2)cc1 17.4%
COc1cc(NC(=O)CC(c2ccc(C)cc2)N2Cc3ccccc3C2=O)cc(OC)c1 (stereo unspecified) -26.1%
CC1=C(c2ccc(F)cc2)S(=O)(=O)NC1=NCc1ccccc1F -17.3%
COc1ccc(-c2nc(C)c(CCNC(=O)C(=O)Nc3ccccc3C#N)s2)cc1OC 6.63%
COc1cc(C2CC(=O)c3c([nH]c(C(=O)OCC4CCCCC4)c3C)C2)cc(OC)c1OC (stereo unspecified) -51.2%
CCCN(C(=O)c1cn(C)c(=O)c2ccccc12)c1ccccc1C -9.07%
CCOc1ccccc1C(=O)N(Cc1cc(OC)c(OC)c(OC)c1)C1CCS(=O)(=O)C1 (stereo unspecified) 9.14%
O=C(CN1CCSc2ccccc21)NCc1ccccc1F 6.07%
COc1ccc2nc(N(Cc3cccnc3)C(=O)C3COc4ccccc4O3)sc2c1 (stereo unspecified) 18.4%
CN(C)CC[C@@H](c1ccc(Br)cc1)c1ccccn1 -5.25%
COc1ccc(N2CCN(S(=O)(=O)CCNC(=O)C3CC(=O)N(c4ccccc4)C3)CC2)cc1 (stereo unspecified) 12.8%
CCCOc1ccc(CN(C(=O)c2cc(=O)c3ccc(C)cc3o2)C2CCS(=O)(=O)C2)cc1 (stereo unspecified) -24.1%
Cc1nc(CC(=O)Nc2cc(Cl)ccc2C)cs1 -14.7%
COc1cc(C)ccc1OCCSc1nc(-c2cccc(C)c2)nc2cc(=O)[nH]n12 9.76%
COc1cccc(C(=O)CC2(O)C(=O)Nc3ccc(Cl)cc32)c1 (stereo unspecified) -17.7%
CCN(CC)CCCNC(=O)c1ccc2nc(N3CCCCC3)sc2c1 -48%
CCNC(=O)c1ccc2nc(CCc3ccccc3)oc2c1 28%
Cc1cc(Nc2ccccc2C)nc(-n2nc(C)cc2C)n1 -21.3%
COc1ccc(CCNC(=O)c2cc(C)nc3c2c(C)nn3-c2ccc(C)cc2)cc1OC -22.7%
Cc1n[nH]c(C)c1S(=O)(=O)N1CCCC(C(=O)Nc2ccc(Br)cc2)C1 (stereo unspecified) -33.2%
Cc1nn2c(C)c(C(=O)N3CCN(c4ccccc4)CC3)cnc2c1-c1ccccc1 3.48%
Cc1ccc(CCNC(=O)c2cc3c(=O)oc4ccccc4c3s2)cc1 -9.73%
COc1ccccc1OCCn1c(COc2cc(C)ccc2C)nc2ccccc21 -6.4%
COc1cccc(CNC(=O)CNS(=O)(=O)c2ccc3nc(C)sc3c2)c1 -13%
COc1cc(NC(=O)CSc2nc3ccccc3nc2Cc2ccccc2OC)cc(OC)c1 -16.9%
CCOc1ccccc1Nc1sc(C(=O)c2ccccc2)c(N)c1C(=O)NCCc1ccccc1 -3.92%
O=C(c1ccc(Cl)cc1)N(Cc1ccco1)Cc1ccco1 -22.7%
COc1cc(OC)cc(C(=O)Nc2ccc3oc(-c4ccccc4C)nc3c2)c1 -8.96%
CCC(=O)Nc1ccc(C)cc1-c1nc2ccccc2n(CC(=O)Nc2ccccc2Cl)c1=O -14.8%
COc1ccc(NC(=O)Cn2c(=O)n(CC3CCCO3)c(=O)c3ccccc32)c(OC)c1 (stereo unspecified) -10.1%
CCN(CC)S(=O)(=O)c1nnc(NC(=O)c2ccccc2Cl)s1 -8.42%
CC(C)CNc1nc(NC(C)(C)C)nc(Oc2ccc(=O)n(-c3ccccc3)n2)n1 -36.5%
COc1ccc(C)cc1NC(=O)COCc1cc(-c2cccs2)on1 -7.44%
CC(C)n1cnc2c(NCCc3ccc(O)cc3)nc(-c3csc4ccccc34)nc21 -66.9%
CCOc1ccc(NC(=O)CSc2nc3c(c(=O)[nH]2)CCCC3)cc1 -20.1%
O=C(CCS(=O)(=O)c1cc(Br)cc2c1N(C(=O)C1CC1)CC2)N1CCN(c2ccc(F)cc2)CC1 -15.2%
COc1cc(C2c3c(oc4ccc(F)cc4c3=O)C(=O)N2c2nc(C)c(C)s2)cc(OC)c1OC (stereo unspecified) -3.65%
Cc1ccc(N(C)C(=O)Cn2cnc3onc(-c4ccc(F)cc4)c3c2=O)cc1C -34.2%
CC1(C)[C@H](O[C@H]2O[C@H](C(=O)O)[C@@H](O)[C@H](O)[C@H]2O[C@@H]2O[C@H](C(=O)O)[C@@H](O)[C@H](O)[C@H]2O)CC[C@@]2(C)[C@H]1CC[C@]1(C)[C@H]2C(=O)C=C2[C@H]3C[C@@](C)(C(=O)O)CC[C@]3(C)CC[C@]21C -7.04%
COc1ccc(CCNC(=O)CCCn2c(=O)c3ccccc3n(Cc3ccc(C)cc3)c2=O)cc1OC -6.77%
Cc1ccc2ncc(C(=O)NCCc3ccc(S(N)(=O)=O)cc3)c(=O)n2c1 -1.45%
CC(C)OCCCNC(=O)CCCn1c(=O)[nH]c2ccsc2c1=O -13.8%
Cc1ccc(CNC(=O)C2CCC(CNS(=O)(=O)c3ccc4c(c3)CCCC(=O)N4)CC2)cc1 (stereo unspecified) -3.36%
CCNC(=O)c1cc2c(-c3cc(OCCN4CCCC4)c(Cl)cc3Cl)nc(N)nc2s1 -40.5%
CCOc1ccc(CNC(=O)c2cc(=O)[nH]c3ccc(S(=O)(=O)N4CCCCC4)cc23)cc1 -7.59%
